Test results from PubChem BioAssay AID2147 (National Center for Advancing Translational Sciences (NCATS), 2009).
Several values for one entry are separate records, joined by “and”; a condition that tells them apart may be missing. Equal entries are not always repeated. Among all 230,000 compounds or so, about 3,600 (1.6%) were called active. The shares of active, inactive and inconclusive entries below differ from those in the screen. Calls follow the shape of the dose curve; as a rule, active = well fitted inhibition curve with a large enough effect (not every such curve was filed as active); inconclusive = small, poorly fitted or top-dose-only effect, or another doubt; inactive = no such curve, though single readings can be large or run the other way. Potencies of inconclusive entries are doubtful fits and often do not repeat.

These compounds were tested against Lysine-specific demethylase 4E (Homo sapiens) (UniProt B2RXH2) (assay: qHTS Assay for Inhibitors of Human Jumonji Domain Containing 2E (JMJD2E)). Conditions: JMJD2E catalytic domain, FDH-coupled NADH fluorescence (FDH is formaldehyde dehydrogenase); series mostly up to 57.1 µM.
Also: nearly all actives have a fitted effect of over 50% in size.
Potency is read from the fitted curve at half-maximal effect; tags tell the direction and shape of the fitted curve.

Chain of UniProt B2RXH2 (B2RXH2 whole entry, looked up, the tested form may be a part): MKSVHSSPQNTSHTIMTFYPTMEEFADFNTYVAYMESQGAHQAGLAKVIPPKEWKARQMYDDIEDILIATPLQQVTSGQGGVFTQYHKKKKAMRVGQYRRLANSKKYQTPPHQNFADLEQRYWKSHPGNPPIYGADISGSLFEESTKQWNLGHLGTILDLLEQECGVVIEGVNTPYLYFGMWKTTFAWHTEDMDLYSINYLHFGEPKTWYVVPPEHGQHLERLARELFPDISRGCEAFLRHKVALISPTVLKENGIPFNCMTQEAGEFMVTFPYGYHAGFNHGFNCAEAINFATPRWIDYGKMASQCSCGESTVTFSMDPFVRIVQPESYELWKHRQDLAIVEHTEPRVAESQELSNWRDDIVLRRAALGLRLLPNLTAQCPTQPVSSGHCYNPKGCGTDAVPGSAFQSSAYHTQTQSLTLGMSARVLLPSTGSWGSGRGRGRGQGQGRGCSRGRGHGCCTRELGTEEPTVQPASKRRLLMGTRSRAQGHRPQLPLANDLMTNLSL

Structure (SMILES)	Potency
CN(CC(O)CON=C1c2ccccc2-c2ccccc21)S(=O)(=O)c1ccc(Br)cc1 (stereo unspecified)	inconclusive: 39.8 µM [inhibitor, single point]
CC1CCCN(C(=O)C2CCN(CC(C)c3ccccc3)CC2)C1 (stereo unspecified)	inconclusive: 31.6 µM [inhibitor, single point]
Cc1cc(=O)oc2cc(NC(=S)NCc3ccccn3)ccc12	inconclusive: 28.2 µM [inhibitor, partial curve]
Cc1cccc(C2C3=C(CCCC3=O)N=C3c4ccccc4C(=O)C32)c1 (stereo unspecified)	inconclusive: 39.8 µM [inhibitor, single point]
COC(=O)CCN1CCN(S(=O)(=O)c2ccccc2Br)CC1	inconclusive: 35.5 µM [inhibitor, single point]
Nn1cnnc1N/N=C/c1cc([N+](=O)[O-])c(Cl)cc1Cl	inconclusive: 39.8 µM [inhibitor, single point]
CCOc1ccc(N2C(=O)CN(O)C=C3N=c4ccccc4=C32)cc1	inactive
Cc1ccc(C(=O)Nn2c(N)c(S(=O)(=O)c3ccc(C)cc3)c3nc4ccccc4nc32)cc1	inconclusive: 28.2 µM [inhibitor, partial curve]
Cc1ccc(OCc2n[nH]c(=S)n2C2CCCCC2)cc1	inconclusive: 20 µM [inhibitor, partial curve, poor fit]
O=C(C1=C[C@H](c2ccc3c(c2)OCO3)C[C@H](OCCCCO)O1)N1CCOCC1	inconclusive: 25.1 µM [inhibitor, single point]
Cn1c(SCC(=O)c2ccc3c(c2)Cc2ccccc2-3)nnc1-c1cccc(N)c1	inactive
Nc1ccc2nc(C3CCCCC3)[nH]c2c1	inconclusive: 22.4 µM [inhibitor, partial curve]
CCc1cc2c3c(c(=O)oc2cc1O)CCCC3	inconclusive: 31.6 µM [inhibitor, partial curve]
COc1ccc(-c2ccc(=O)n(Cc3cc(=O)n4ccccc4n3)n2)cc1	inconclusive: 28.2 µM [inhibitor, single point]
CC(=O)c1ccc(NC(=S)Nc2ccc(N3CCOCC3)cc2)cc1	inconclusive: 10 µM [inhibitor, partial curve]
CCN(CC)C(=O)CC(c1cc(OC)c(OC)c(OC)c1)c1c(OC)cc(OC)c2ccc(=O)oc12 (stereo unspecified)	inconclusive: 39.8 µM [inhibitor, single point]
O=C1CNC(=O)/C(=C/c2cccs2)N1	inactive
COc1ccc(NC(=O)c2cc3cccc(OC)c3oc2=Nc2ccc(C(=O)O)cc2)cc1OC	inconclusive: 25.1 µM [inhibitor, single point]
O=C(CSc1ccc2nnc(-c3cccs3)n2n1)N1CCCC1	inconclusive: 39.8 µM [inhibitor, single point]
CCOC(=O)C1=C(NC#N)OC(C)=C(C)C1c1ccc(O)cc1 (stereo unspecified)	inconclusive: 39.8 µM [inhibitor, single point]
CSc1cccc(NC(=O)/C=C/c2cccc(Cl)c2)c1	inconclusive: 5.62 µM [inhibitor, single point]
Cc1ccc(C(=O)C(C)N(C(=O)c2ccc(Cl)cc2Cl)N2C(=O)CCCC2=O)cc1 (stereo unspecified)	inactive
O=C(C(Cl)Cl)N1CCN(Cc2ccccc2)CC1	inactive
O=C(CSc1ccc(Cl)cc1)Nc1ccc(-c2nc3ccccc3[nH]2)cc1	inconclusive: 25.1 µM [inhibitor, partial curve]

Structure (SMILES)	Potency
Cc1ccc(NC(=O)CSc2nnc(-c3ccccn3)n2N)c(Br)c1	inactive
CC(=O)NC1C(=O)N(CC(C)C)c2ccccc21 (stereo unspecified)	inactive
CC1Cc2ccccc2N1C(=O)c1cc2sccc2n1Cc1ccccc1 (stereo unspecified)	inconclusive: 39.8 µM [inhibitor, single point]
Cc1cccc(CN2CCc3c(OCC(=O)NCc4ccco4)cccc3C2=O)c1	inactive
COc1ccc(Cc2nnc(SCC(=O)N3CCN(c4ccccc4)CC3)o2)cc1	inactive
CC(=O)c1nc(N2C(=O)CC(Cc3ccccc3)C2=O)sc1C (stereo unspecified)	inactive
C(=N\Nc1nc2ccccc2s1)/c1ccco1	inconclusive: 25.1 µM [inhibitor, partial curve]
O=C1CC(N2CCN(c3ccccc3Cl)CC2)C(=O)N1c1ccc(F)cc1 (stereo unspecified)	inactive
Cc1nn(Cc2c(Cl)cccc2Cl)c(C)c1NC(=O)CCCn1nc(C)c([N+](=O)[O-])c1C	inactive
Cc1cccn2cc(CCNC(=O)Cc3cccs3)nc12	inconclusive: 39.8 µM [inhibitor, single point]
COc1ccc2cc(CN(CC3CCCO3)S(=O)(=O)c3ccccc3Cl)c(=O)[nH]c2c1 (stereo unspecified)	inconclusive: 31.6 µM [inhibitor, single point]
C/C(CC(=O)Nc1cccc2c1CCCC2)=N\NC(=O)c1cccc2ccccc12	inconclusive: 39.8 µM [inhibitor, single point]
Cc1cccc(N2C(=O)c3cccc4c(N(C)CCO)ccc(c34)C2=O)c1	inconclusive: 31.6 µM [inhibitor, partial curve]
CC(C)C(=O)Nc1ccc(C(=O)N2CCCCCC2)cc1	inactive
Oc1ccc(Cl)cc1C1=NNC(c2cc(Br)cc3c2OCOC3)C1 (stereo unspecified)	inconclusive: 28.2 µM [inhibitor, partial curve]
CC(=O)OC1=Cc2c(ccc3ccc(=O)oc23)OC1(C)C	inconclusive: 25.1 µM [inhibitor, partial curve]
Nc1[nH]nc2nc(NCc3ccccc3)c3c(c12)CCN(Cc1ccccc1)C3	inconclusive: 35.5 µM [inhibitor, single point]
O=C(NC(Cc1c[nH]c2ccccc12)C(=O)OCC(=O)c1cccc2ccccc12)c1cccs1 (stereo unspecified)	inactive
Cc1nc(-c2coc3cc(OCC(=O)O)ccc3c2=O)cs1	inconclusive: 22.4 µM [inhibitor, partial curve]
CCN(CC)c1ccc(CNc2nc3ccccc3n2CC)cc1	inactive
Cc1c(OC(C(=O)O)c2ccccc2)ccc2c(-c3ccccc3)cc(=O)oc12 (stereo unspecified)	inconclusive: 35.5 µM [inhibitor, single point]
COc1ccc(C2CC(c3ccccc3OC(C)=O)=NN2C(=O)/C=C/c2ccccc2)cc1 (stereo unspecified)	inconclusive: 39.8 µM [inhibitor, single point]
CCCCC1=CC2=CC(=O)C(C)(OC(=O)CC)C(=O)C2=CN1C1CCCC1 (stereo unspecified)	inconclusive: 35.5 µM [inhibitor, single point] and inconclusive: 6.31 µM [inhibitor, single point]
Nc1nc(Cl)nc2c1ncn2[C@@H]1O[C@H](CO)[C@H](O)[C@H]1O	inactive

Structure (SMILES)	Potency
Nc1nonc1C(=O)NCCN=Cc1cc(Cc2ccccc2)cc(Br)c1O	inactive
O=[N+]([O-])c1ccc(N2CCCCC2)cc1SCCO	inactive
O=C(Nc1cccc2ccccc12)NC1Cc2ccccc2C1	inconclusive: 31.6 µM [inhibitor, partial curve]
CN(C)c1ccc2c(c1)OC(N)=C(C#N)C2c1cccc(F)c1 (stereo unspecified)	inactive
CCOC(=O)c1cc(C)nc(S(C)(=O)=O)c1C#N	inconclusive: 39.8 µM [inhibitor, single point]
CC(=O)Nc1c(S(=O)(=O)c2ccccc2)c2nc3ccccc3nc2n1Cc1ccccc1	inconclusive: 35.5 µM [inhibitor, partial curve]
Cn1cc(CN(Cc2ccccn2)C[C@@H]2CCC(=O)N2)c(-c2ccccc2F)n1	inconclusive: 28.2 µM [inhibitor, single point]
Cn1ncc(Cl)c1C(=O)Nc1sc2c(c1C(N)=O)CCC2	inconclusive: 25.1 µM [inhibitor, partial curve]
O=c1cc(-c2c(O)c3ccccc3n(Cc3ccccc3)c2=O)[nH][nH]1	inconclusive: 35.5 µM [inhibitor, single point]
O=S(=O)(c1ccc(NC(=S)NCCC(c2ccccc2)c2ccccc2)cc1)N1CCOCC1	inactive
CCNC(=O)NC(=O)C(C)Sc1nc2cc(C(=O)OC)ccc2c(=O)n1-c1ccccc1 (stereo unspecified)	inconclusive: 39.8 µM [inhibitor, single point]
CCCCn1c(N)c(-c2nc3ccccc3s2)c2c([N+](=O)[O-])nn(C)c(=O)c21	inactive
O=C1C2=C(C(c3ccccc3)=NCCN2)C(c2cccc([N+](=O)[O-])c2)N1c1ccccc1 (stereo unspecified)	inconclusive: 39.8 µM [inhibitor, single point]
COc1ccccc1NC(=O)c1ccc(-c2nn(C)c(=O)c3ccccc23)cc1	inactive
CCOC(=O)C1CCCN(CCC(=O)Nc2c(C(=O)OC)[nH]c3cc(OC)ccc23)C1 (stereo unspecified)	inconclusive: 39.8 µM [inhibitor, single point]
CN1CCN(CCCN2c3ccccc3Sc3ccc(S(=O)(=O)N(C)C)cc32)CC1	inactive
CCNC(=S)Nc1scc(-c2ccccc2)c1C(=O)OCC	inactive
O=C(O)Cc1sc(-c2ccc(Cl)cc2)nc1-c1ccccc1	inconclusive: 35.5 µM [inhibitor, single point]
OC1(C#CCN2CCOCC2)CCCCC1	inactive
CCN(CC)S(=O)(=O)c1cc(OC)c(Cl)cc1OC	inactive
CCC(=O)n1nc(NCc2ccc(OC)c(OC)c2)nc1NCc1ccc(OC)c(OC)c1	inactive
O=C(/C=C/c1ccco1)N1CCN(S(=O)(=O)/C=C/c2ccccc2)CC1	inactive
CCC(C)Sc1nc2c(c(=O)[nH]c(=O)n2C)n1CC(O)COc1ccccc1C (stereo unspecified)	inconclusive: 39.8 µM [inhibitor, single point]
